Values joined by “and” are separate entries in the source; they are usually repeats but may differ in a detail not shown here. Equal entries are not always repeated.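 Dose response: 5 concentrations. Exposure: 48 h. Format: 96-well plates. Endpoint: linear interpolation; highest concentration if not reached. Abbreviation: GI50, concentration required for 50% inhibition of growth. TGI: total growth inhibition.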
Tested on: NCI-H322M lung
Test: growth of human tumour cells (NCI), 48 h

Structure (SMILES) | GI50 | TGI
Cc1ccc(NC2=C3CCCCC3OC2=O)cc1 (stereo not drawn) | > 100 µM | > 100 µM
CCOC(=O)C12OC(OCC)(CC1(OCC)OCC)C1(CC1)C2=O (stereo not drawn) |  | > 100 µM
COCOC1/C=C/CCCCC(=O)C(C)C#CC1 (stereo not drawn) |  | 24.7 µM
c1ccc(-c2n(Cc3ccc4ccccc4n3)cc[n+]2Cc2ccc3ccccc3c2)cc1 | 2.61 µM | 9.33 µM
Cc1ccc(Nc2nc(NNC(=O)Cc3ccccc3)nc(NNC(=O)c3ccncc3)n2)cc1 |  | > 10 µM
C=CC(=O)Nc1cc(Nc2nccc(-c3cn(C)c4ccccc34)n2)c(OC)cc1N(C)CCN(C)C | 0.175 µM and 0.222 µM | 5.33 µM and 2.34 µM
CCOC(=O)CCCSCCCC(=O)CCCSCCCC(=O)OCC |  | > 100 µM
CCCC/C=C/C=C/C=C/CCCCCCCC(=O)OCC(COC(=O)CCCCCCC/C=C/C1C=CC(CCCC)C(C(=O)O)C1C(=O)O)OC(=O)CCCCCCC/C=C/C=C/C=C/CCCC (stereo not drawn) (tested in a mixture with another compound) |  | 55.4 µM
O=C(O)C1C2c3ccccc3C(c3ccccc32)C1C(=O)NCC1CC1 (stereo not drawn) |  | > 100 µM
C/C=C/[C@@H]1O[C@@H]2COC(=O)C2=C[C@@H]1O | 29.9 µM | > 74.1 µM
CCOC(=O)c1ccc(-c2cc(C)no2)[nH]1 |  | > 100 µM
NC(N)=NS(=O)(=O)c1ccc(N=Nc2c(O)c(C(=O)O)cc3ccccc23)cc1 |  | > 100 µM
O=c1c2cccnc2ncn1CCN1CCCCC1 |  | > 100 µM
CC(=O)OCCOCNC(=S)N/N=C/c1ccc([N+](=O)[O-])o1 |  | > 100 µM
Cc1cc2c(cc1C)[n+](=O)c(C(=O)c1ccccc1)c(C(F)F)n2[O-] | 16.6 µM | 66 µM
CC1(C)[C@@H](NOCCCN)CC[C@]2(C)[C@H]3C(=O)C=C4[C@@H]5C[C@](C)(C(=O)O)CC[C@]5(C)CC[C@@]4(C)[C@]3(C)CC[C@@H]12 | 3.8 µM | 15.4 µM
N#C/C(N)=C(\C#N)NC=NCCO |  | > 100 µM
CCOC(=O)C1Sc2ccccc2N=C1C (stereo not drawn) |  | > 100 µM
O=C1OCC2=C1C(c1cccc(Br)c1)c1cc3c(cc1N2CCO)OCCO3 (stereo not drawn) | 0.418 µM | > 50 µM
CC(=O)OCc1ccc2c(c1)C(O)NC(=O)O2 (stereo not drawn) |  | > 100 µM
COc1cc(OCCN(C)C)c2[nH]c(C(=O)N3CC(CCl)c4ccc(N)cc43)cc2c1 (stereo not drawn) |  | 11.9 µM
CC1NC(=O)C(C)C(c2ccccc2)N(N=O)C1c1ccccc1 (stereo not drawn) |  | > 100 µM
COc1cc(S(=O)(=O)Nc2ccc(-c3csc(N4C(=O)CSC4c4cccc(Oc5ccccc5)c4)n3)cc2)ccc1Cl (stereo not drawn) |  | > 100 µM

Structure (SMILES) | GI50 | TGI
Cc1ccc2nc(-c3ccccc3)cc(=O)n2c1 |  | > 100 µM
CN1CCN(c2ccc(Nc3ncc(Cl)c(NC[C@@H]4CCCO4)n3)cc2)CC1 | 2 µM | > 100 µM
Cc1cn(C2OC(CO[Si](C)(C)C(C)(C)C)C(N(C)O[Si](C)(C)C(C)(C)C)C2[Se]c2ccccc2)c(=O)[nH]c1=O (stereo not drawn) |  | 53.3 µM
Cc1ccc(S(=O)(=O)N2CC2CCCCC=O)cc1 (stereo not drawn) |  | > 100 µM
Cc1[nH]c(=O)nc2sc(=NC3CCCCC3)n(C3CCCCC3)c(=O)c12 |  | > 100 µM
O=c1cc(-c2ccc3c(c2)OCO3)[nH]c2cc3c(cc12)OCO3 |  | > 100 µM
COc1ccc(C2=CC(C(C)=C(C(N)=O)C(N)=O)C=C(c3ccc(Br)cc3)C2)c(OC)c1 (stereo not drawn) |  | > 100 µM
COc1ccc2oc3c(C)cc4c(OC)nnc(OC)c4c3c2c1 |  | > 100 µM
CN(C)c1ccc(/C=N/NC(=S)Nc2ccccc2)cc1 |  | > 100 µM
O=c1[nH]c(=O)n(C2COC(CO)C2O)cc1F (stereo not drawn) |  | > 100 µM
COc1ccccc1CC(=O)C(O)(C(F)(F)F)C(F)(F)F |  | > 100 µM
N#CSC#CCCC#CSC#N |  | 44.9 µM
CCOC(=O)C1=C(C)N(NC(=O)Nc2ccccc2)C2(N)N(NC(=O)Nc3ccccc3)C(C)=C(C(=O)OCC)C12C(=O)OCC (stereo not drawn) |  | > 100 µM
CON(C)C(=O)C(Cc1ccccc1)NC(=O)OCc1ccccc1 (stereo not drawn) |  | > 100 µM
COC(=O)c1ccc(Cc2cc(Cc3ccc(C(=O)OC)cc3)cc(Cc3ccc(C(=O)OC)cc3)c2)cc1 |  | > 25 µM
CCC(C)SC1SCC2C(=O)N(C)C3(CC3C)C(=O)OCC(NC(=O)c3nc4ccccc4cc3O)C(=O)NC(C)C(=O)N(C)C1C(=O)N(C)C1(CC1C)C(=O)OCC(NC(=O)c1nc3ccccc3cc1O)C(=O)NC(C)C(=O)N2C (stereo not drawn) |  | 0.000485 µM
N=c1oc2ccccc2cc1C(=O)NC12CC3CC(CC(C3)C1)C2 |  | 76.3 µM
CCOC(=O)c1cc(-c2ccc(OC)cc2)c([N+](=O)[O-])n1C |  | > 10 µM
Cc1nc(-c2nc(C)c(C(=O)NNC(=O)C[n+]3ccccc3)s2)sc1C(=O)NNC(=O)C[n+]1ccccc1 |  | > 100 µM
Cc1ccc(-c2nc(N3CCNCC3)c3oc(-c4ccc(C)cc4)nc3n2)cc1 | 1.78 µM | 3.26 µM
CC[C@@H](c1ccc(O)c(O)c1)[C@@H](CC)c1ccc(O)c(O)c1 | 66.2 µM | > 100 µM
Oc1ccc(NCn2c(=S)sc3ccccc32)cc1 |  | > 100 µM
NC(Cc1ccccc1)C(=O)NC(Cc1ccccc1)NC(=O)C(Cc1c[nH]c2ccccc12)C(=O)O (stereo not drawn) |  | > 100 µM

Structure (SMILES) | GI50 | TGI
COC(=O)c1cc2oc(/C=C3/SC(=S)N(NC(C)=O)C3=O)cc2n1C | 20.6 µM | 86.8 µM
O=C(Nc1nn2c(-c3cc(C(F)(F)F)cc(C(F)(F)F)c3)nnc2s1)C1CCCC1 | 0.705 µM | > 30.3 µM
O=C1/C(=C\c2ccc(Cl)cc2Cl)Sc2scc(-c3ccc(O)c(O)c3)[n+]21 |  | 71.1 µM
COc1ccc(CN2C(=O)C(Cl)=C(Nc3cccc(C(F)(F)F)c3)C2=O)cc1 | 6.75 µM | > 100 µM
CCOc1ccc(NC2=CC(=O)C(=O)c3ccccc32)cc1 |  | 17.9 µM
CC(C)(CN1CCCCC1)C(/C=C/c1ccc(Cl)cc1)=N\NC(=O)N/N=C(/C=C/c1ccc(Cl)cc1)C(C)(C)CN1CCCCC1 |  | 25 µM
C=CCNC(=S)N/C=C(\C#N)C(N)=O |  | > 100 µM
NC(=S)N/N=C1\c2cc(Cl)ccc2-c2c1cc(Cl)cc2[N+](=O)[O-] | 10.9 µM | > 100 µM
COC(=O)/C=C/c1cc(OC(C)=O)c2c(c1)[C@@H](C(=O)OC)[C@H](c1ccc(OC(C)=O)c(OC(C)=O)c1)O2 | 2.92 µM | 42.9 µM
C(=C/CCCN1O[C@@H](CCCCCCCCc2cccnc2)[C@H]2CCC[C@H]21)/CCCCCCCCCc1cccnc1 |  | 58.8 µM
CN(C)C(=S)/N=c1\ssc(=S)n1C1CCCCC1 |  | > 100 µM
COc1ccc(C(c2cc(OC)c(OC)c(OC)c2)n2cncn2)cc1O (stereo not drawn) | 0.696 µM | > 100 µM
CN(C)CC1CCC/C1=N/OC(=O)c1ccccc1 (stereo not drawn) |  | > 100 µM
COc1ccc(C(SCCO)(c2ccccc2)c2ccc(OC)cc2)cc1 |  | 13.5 µM
C=C1C[C@H](O)[C@H](Br)C(C)(C)[C@@]12CCC(C)=C(Cl)C2 | 0.508 µM | 13 µM
CC(=O)N[C@@H](Cc1ccc(OP(=O)(O)O)cc1)C(=O)N[C@H]1CCC(=O)N2CCC[C@@H](C(=O)Nc3cccc4ccccc34)N2C1=O | > 25 µM | > 25 µM
N#CCCC[Si]12OCCN(CCO1)CCO2 |  | > 100 µM
O=C1c2ccccc2C(=O)c2c(/C=C\N3CCCCC3)ccnc21 |  | 6.9 µM
C=C(C)C12OC1[C@@]1(C)C(=CC2=O)CCC(O)[C@@H]1C (stereo partly drawn) |  | 25.2 µM
O=C1OC(c2ccccc2)=N/C1=C\c1ccc([N+](=O)[O-])cc1 |  | > 100 µM
CCCCCCOc1ccc(/C=N/Nc2cc(C)nc3ccc(Cl)cc23)cc1 | 1.7 µM | 3.13 µM
COc1ccc(C(C)NNC(=O)c2ccncc2)cc1OC (stereo not drawn) |  | > 100 µM
COc1ccc(/C=C/COC(C)=O)cc1OC |  | > 100 µM

— PubChem BioAssay (NCI)
